The text below walks through data of PubChem BioAssay AID1508642 (National Center for Advancing Translational Sciences (NCATS), 2021).

Screen size: about 43,000 compounds; about 200 (0.47%) were called active. Another 12% or so got no clear call; they are omitted. The call rests on the fitted dose curve; in most records, active means well fitted cell-killing curve with a large enough effect; inconclusive means small, poorly fitted or top-dose-only effect, or effect the other way; inactive means flat fitted curve, though single readings scatter. Some of the results follow.
On the % scale 0 is the no-effect control and ±100 the full control effect.

This test can be described thus: Cell viability qHTS assay in S16 Pmp22-F2sN cells. Further: nearly all actives have a fitted effect of over 65% in size. To be noted: S16 Pmp22-F2sN Schwann cells viability, CellTiter-Glo, 24 h; series mostly up to 57.5 µM; activity change, negative = cytotoxicity: at the top concentration. The method in brief:
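Viability was measured by CellTiter-Glo luminescence (15 min, room temperature). This followed 24 h at 37 °C of compound exposure (23 nL pin transfer) in S16 Pmp22-F2sN Schwann cells, 500-1,000 per well.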
Take `O=c1cc(-c2ccccc2)n2c(SCc3c(F)cccc3Cl)nnc2[nH]1`: the “activity change, negative = cytotoxicity” value was inactive: -3.4%.
Regarding `CCCc1nn2c(=O)cc(COc3ccc(/C=C(\C#N)C(=O)Nc4ccccc4)cc3)nc2s1`, the “activity change, negative = cytotoxicity” value was inactive: 21.9%.
Take `COc1ccc(C(CC(=O)NCc2ccccc2Cl)N2Cc3ccccc3C2=O)cc1OC` (centres undefined): the “activity change, negative = cytotoxicity” value was inactive: 2.77%.
Under `CC(C)CC(=O)NC1(C(F)(F)F)C(=O)Nc2c1c(=O)[nH]c(=O)n2-c1ccccc1` (centres undefined) stands inactive: -0.601%; under `Cc1ccc(NC(=O)CN(C)S(=O)(=O)c2cnc[nH]2)cc1`, inactive: 3.68%.
As for `Cc1ccc(NC(=O)C(=O)NCc2ccco2)cc1`, the figure is inactive: -12.8%.
As for `Cc1ccc(C)c(CN2C(=O)c3ccccc3S(=O)c3ccc(C(=O)N4CCN(c5cccc(Cl)c5)CC4)cc32)c1` (centres undefined), the figure is inactive: 8.57%.
With `Cc1ccc(NC(=O)Cn2c(=O)n(CCCCC(=O)NCc3ccccc3Cl)c(=O)c3ccccc32)cc1`, the “activity change, negative = cytotoxicity” value is inactive: 13%.
As for `COc1ccccc1OCC(=O)NCC(c1ccc(Cl)cc1)N1CCOCC1` (centres undefined), the figure is inactive: 0.0647%; as for `CCOc1ccccc1NC(=O)C(CC)n1c(C(=O)OC)cc2occc21` (centres undefined), inactive: 1.94%.
Under `COc1cc(C2c3c(-c4ccccc4O)n[nH]c3C(=O)N2Cc2ccco2)ccc1OCC(C)C` (centres undefined) stands inactive: -9.85%.
In the case of `CCc1cccc(C)c1NC(=O)CN1CCCN(Cc2ccccc2Cl)S1(=O)=O`, the “activity change, negative = cytotoxicity” value is inactive: -5.56%.
Under `O=S(=O)(c1ccc(-n2cnnn2)cc1)N1CCN(c2cccc(Cl)c2)CC1` stands inactive: -3.13%.
For `Cc1c(C(=O)N2CCCCCC2)c(S(=O)(=O)N(Cc2ccccc2)C(C)(C)C)c(C)n1C`, the “activity change, negative = cytotoxicity” value was inactive: 2.86%.
As for `COc1ccc(Nc2oc(/C=C/c3cccc(OC)c3)nc2C#N)cc1`, the figure is inactive: -0.614%; as for `O=C(Cn1ncc2ccsc2c1=O)N1CCN(c2ccccc2F)CC1`, inactive: -0.0763%; as for `CCCCN(CC)CCNC(=O)C1CCCN(S(=O)(=O)c2cccc3nsnc23)C1` (centres undefined), inactive: 4.69%.
As for `COc1ccccc1-c1noc(CCCC(=O)Nc2cc(C)ccc2C)n1`, the figure is inactive: 7.78%.
Regarding `COc1ccc(C(=O)Nc2ccc(C(=O)OCc3cc(=O)n4nc(C5CC5)sc4n3)cc2)cc1`, the “activity change, negative = cytotoxicity” value was inactive: 9.4%.
Under `O=C(CN1CCSc2ccccc21)N1CCN(c2ccc(F)cc2)CC1` stands inactive: 12.8%.
Under `Cc1ccc(N(C)C(=O)c2cc(S(=O)(=O)N3CCOCC3)cn2C)cc1` stands inactive: 4.51%; under `CCCN(Cc1cccs1)C(=O)Nc1cc(OC)ccc1OC`, inactive: 3.21%.
Under `COc1ccc(CCNC(=O)CCCCn2c(=O)c3ccccc3n(Cc3ccccc3Cl)c2=O)cc1OC` stands inactive: -2.27%.
Consider `CCOC(=O)c1c(C)[nH]c(C)c1S(=O)(=O)NCC(=O)N1CCN(c2ccccc2OC)CC1`, for which the “activity change, negative = cytotoxicity” value was inactive: -0.0557%.
Under `COc1ccc(OC)c(S(=O)(=O)NCCc2csc(-c3cccc(F)c3)n2)c1` stands inactive: -0.479%.
As for `CCN(CC)C(=O)Nc1ccc2c(c1)N(Cc1ccccc1)C(=O)c1ccccc1S2`, the figure is inactive: -0.661%; as for `Cc1ccc(-n2nc3c(N4CCC(C(=O)NCc5ccccc5Cl)CC4)nnc(C)c3c2C)cc1`, inactive: -3.52%; as for `Cc1ccc(-n2nc3c(=O)n(CC(=O)NCC(C)c4ccccc4)nc(C)c3c2C)cc1` (centres undefined), inactive: -9.87%.
For `COc1ccc(Cn2ccc3nc(C)c(C(=O)NCc4cccc(OC)c4)cc3c2=O)cc1`, the “activity change, negative = cytotoxicity” value was inactive: -0.851%.
As for `CCc1ccccc1NC(=O)Cn1c2ncccc2c(=O)n1-c1ccccc1`, the figure is inactive: 1.58%.
On to `Cc1cc(=O)c2cc(C(=O)Nc3ccccc3C)ccc2[nH]1`, for which the “activity change, negative = cytotoxicity” value was inactive: 9.22%.
Regarding `CCOc1cc2sc(N3CCC(C(=O)Nc4cc(C)cc(C)c4)CC3)nc2cc1Br`, the “activity change, negative = cytotoxicity” value is inactive: -0.587%.
Under `COC(=O)c1cc2sc(Cl)cc2n1Cc1cc(C)ccc1C` stands inactive: 6.05%.
Consider `CCOc1ccc(CNC(=O)CCCc2cn(C)c3ccccc23)cc1OC`, for which the “activity change, negative = cytotoxicity” value is inactive: -5.05%.
On to `CCn1cc2c(n1)-c1c(oc(C(=O)Nc3cccc(C(F)(F)F)c3)c1C)CC2`, for which the “activity change, negative = cytotoxicity” value was inactive: 13.3%.
In the case of `COc1cc(F)c(S(=O)(=O)Nc2c(C)n(C)n(-c3ccccc3)c2=O)cc1OC`, the “activity change, negative = cytotoxicity” value is inactive: -0.005%.
As for `COC(=O)c1ccc(CSc2nnc3ccc4ccccc4n23)cc1`, the figure is inactive: 7.35%; as for `COc1ccc(S(=O)(=O)NCc2cccn2Cc2cccc(C)c2)cc1`, inactive: 9.66%; as for `COc1ccccc1NC(=O)CC(c1cc(OC)c(OC)c(OC)c1)N1Cc2ccccc2C1=O` (centres undefined), inactive: -0.189%.
As for `CCCCCSc1nc2sc3c(c2c(=O)n1-c1ccc(OC)cc1)CCN(C(C)=O)C3`, the figure is inactive: 29.1%.
As for `Cc1ccc(Nc2c(-c3ccsc3)nc3c(C)cccn23)cc1`, the figure is inactive: -16.5%.
Regarding `COc1ccccc1CNC(=O)Cn1ncn2c(cc3sccc32)c1=O`, the “activity change, negative = cytotoxicity” value is inactive: 12.3%.
As for `CCOC(=O)CSc1nnc2n(-c3ccccc3)c(=O)c3c4c(sc3n12)CC(C(C)(C)C)CC4` (centres undefined), the figure is inactive: 4.68%; as for `COc1cc2c(cc1NC(=O)COc1ccc(Cl)cc1Br)oc1ccccc12`, inactive: 8.12%; as for `Cc1ccc(-n2nnc(-c3nc(-c4cccs4)no3)c2N)c(C)c1`, inactive: 5.85%.
Regarding `COc1ccc(S(=O)(=O)c2c(C(=O)c3ccc(C)c(C)c3)cnc3ccc(F)cc23)cc1`, the “activity change, negative = cytotoxicity” value is inactive: -16.4%.
Under `CC(C)c1ccc(OCC(=O)Nc2c(C(=O)c3ccc(F)cc3)oc3ccccc23)cc1` stands inactive: 8.76%.
Consider `Cc1ccc(CNC(=O)C2COc3ccccc3C2)cc1` (centres undefined), for which the “activity change, negative = cytotoxicity” value is inactive: -3.21%.
Under `COc1ccc2c(c1)Cc1sc(NC(=O)c3cccc(C)c3)nc1-2` stands inactive: 0.784%.
